Where “and” joins values, the source holds several entries; their conditions need not be identical. Equal entries are not always repeated.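 Tested at 5 concentrations; 48 h exposure; 96-well plates; endpoints linearly interpolated, else capped at highest concentration. GI50 is the concentration that inhibits growth by half. TGI marks complete inhibition of growth.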
Test system: NCI-H322M lung
Assay: inhibition of tumour cell growth, NCI panel, 48 h

Structure (SMILES)	TGI	GI50
CCOC(=O)N1C(c2ccccc2)C=CC(c2ccccc2)N1C(=O)OCC (stereo not drawn)	> 100 µM	
COc1cc(C2CC(=O)Nc3c2ccc2ccccc32)cc(Br)c1OC (stereo not drawn)	> 100 µM	0.693 µM
CCN(CC)CCn1c2ccc(OC)cc2c2sc3cc(OC)ccc3c(=O)c21	4.07 µM	1.59 µM
COC(=O)NC(Cc1ccccc1)NC(C)=O (stereo not drawn)	> 100 µM	
OCC(CCc1c[nH]c2ccccc12)c1c[nH]c2ccccc12 (stereo not drawn)	34.1 µM	
Nc1cc(S(N)(=O)=O)ccc1SSc1ccc(S(N)(=O)=O)cc1N	> 100 µM	
Cc1cc(N2CCCC2)c([N+](=O)[O-])cc1[N+](=O)[O-]	> 100 µM	
N#CC[N+]1(Cc2ccccn2)CCCC1	> 100 µM	
CC1[C@@H]2CC=C3[C@H]4CCC5Cc6nc7c(nc6C[C@@]5(C)C4(O)CC(=O)[C@]32CO[C@]12OC(C)(C)CC2O)CC1CC[C@@H]2C3=C[C@H]4O[C@@]5(O[C@@](C)(CO)C[C@@H]5O)C(C)[C@@]4(O)[C@]3(C)[C@@H](O)CC2[C@]1(C)C7 (stereo partly drawn)	0.652 µM	0.0283 µM
CNC(=S)NNc1ncnc2c1ncn2-c1ccc(C)cc1	> 100 µM	
c1ccc(B2OCC(C3OB(c4ccccc4)OC4COB(c5ccccc5)OC43)O2)cc1 (stereo not drawn)	> 100 µM	
COC(=O)c1ccccc1C1=C([N+](=O)[O-])C(c2ccccc2)C(C#N)=C(N)O1 (stereo not drawn)	> 100 µM	
Cc1cc(N(CCC#N)CCC#N)ccc1/C=C1\SC(=S)NC1=O	> 100 µM	
NCc1c(C(N)=O)ncn1Cc1ccccc1	> 100 µM	
O=[N+]([O-])c1ccc([N+]2=NC(c3ccccc3)=NN(c3ccccc3)C2)cc1	> 100 µM	
O=C(O)c1ccccc1N=Nc1ccc2oc(=O)c(C(=O)Nc3ccccc3)cc2c1	> 100 µM	
CC(C)C[C@H](NC(=O)[C@@H](NC(=O)c1cccc(-c2ccccc2)n1)[C@@H](C)O)B(O)O	26.2 µM	0.15 µM and 0.311 µM
CCNNC(=O)[C@@H]1[C@H](c2cc(OC)c(OC)c(OC)c2)c2cc3c(cc2[C@H](O)[C@H]1CO)OCO3	> 100 µM	
C=C1CCCC2[C@](C)(CC3=C(O)C(=O)C=C(OC)C3=O)[C@@H](C)CC[C@]12C (stereo partly drawn)	16.8 µM	
C[n+]1c2ccccc2c(/C=N\NS(=O)(=O)c2ccc(Cl)cc2)c2ccccc21	> 100 µM	
CCOc1nccc2c1nc(-c1nonc1N)n2CC	> 25 µM	> 25 µM
COC12CCC(C(C(=O)c3ccccc3)=C1C(=O)c1ccccc1)C(O)C2 (stereo not drawn)	> 100 µM	
Nc1nc(=O)n(C2OC(CO)C(O)C2O)c2ncc(-c3ccc(-c4ccccc4)cc3)nc12 (stereo not drawn)	> 100 µM	

Structure (SMILES)	TGI	GI50
COCC12CCC(OC)C34C5CC6(O)C(OC)CC(OC(C)=O)(C5C6OC(=O)c5ccccc5)C(C(OC)C13)C4N(C)C2 (stereo not drawn)	> 100 µM	
COc1cccc(C2SC(C)C(=O)N2CCc2cccs2)c1 (stereo not drawn)	16.2 µM	2.75 µM
Cc1c(-c2nnc(-c3ccccc3)o2)c(=O)n(-c2ccccc2)n1C	> 100 µM	
CCOC(=O)C(C)(C)Oc1ccc2c(-c3ccc(Cl)cc3)c(-c3ccc(Cl)cc3)c(=O)oc2c1	> 100 µM	
CCOc1ccc(/C=C2\NC(=S)N(/C=C3\C(=O)Oc4ccccc4C3=O)C2=O)cc1	65.9 µM	
CCOC(=O)C1=C(Nc2ccc(Br)cc2)OC/C1=N\NC(=O)c1ccccc1O	> 100 µM	
NC(=O)c1ccccc1NC(=O)c1ccccc1Cl	> 100 µM	> 100 µM
Clc1ccc(C2CC(c3cccc(Nc4ccncc4)c3)=NN2c2cc(Cl)cc(Cl)c2)cc1 (stereo not drawn)	3.15 µM	1.62 µM
CN[C@@H](C)[C@@H](O)c1ccccc1	> 100 µM	
Clc1ccc(CNc2nccc(-c3cnn4ncccc34)n2)cc1	> 22.4 µM	9.29 µM
O=C(CCSc1ccnc2c(C(F)(F)F)cccc12)N/N=C/c1cc(Cl)c(Cl)cc1Cl	72.6 µM	28.6 µM
CCCC(=O)NC(Nc1ccc(F)cc1)(C(F)(F)F)C(F)(F)F	> 100 µM	
CC(NC(=O)C(=O)N/N=C1\C[C@@H](c2ccccc2)Nc2ccccc21)c1ccccc1 (stereo partly drawn)	> 100 µM	
CS(=O)(=O)N(CCC#N)c1ccc(C=O)cc1	> 100 µM	
NC(CC(O)(c1ccccc1)c1ccccc1)c1ccccc1S (stereo not drawn)	34.5 µM	
CC(=O)NC1(C(=O)N[C@@H](Cc2ccccc2)C(=O)NC2CCCCC2)Cc2ccc3ccccc3c2-c2c(ccc3ccccc23)C1	> 100 µM	
CCOC(=O)C(NC(=O)CC)(Nc1ccc(F)c(Cl)c1)C(F)(F)F (stereo not drawn)	> 100 µM	
Cc1ccc2nc(-c3ccc(N)c4ccccc34)[nH]c2c1	25.6 µM	0.405 µM
COc1ccc([C@]23CCN4COC[C@@H]([C@H]42)C2(CC3)OCC(C)(C)CO2)cc1OC	> 100 µM	
CC(=O)N(C(C)=O)n1c(Cc2ccc(C)cc2)nn(C(C)=O)c1=O	> 100 µM	
Cc1cc2oc(C)c(S(=O)(=O)NC(=O)Nc3ccc(Cl)cc3)c(=O)c2c(=O)o1	> 100 µM	
O=C(O)CCc1ccc2c(c1)CC1(Cc3ccccc3C1)C2	> 100 µM	
Cc1ncc(C(=O)Nc2ccc(CN3CCN(C)CC3)c(C(F)(F)F)c2)cc1C#Cc1c(N)ncc2ccccc12	1.1 µM	0.562 µM

Structure (SMILES)	TGI	GI50
N#Cc1nc2c(S(=O)(=O)c3ccccc3)c(N)n(Cc3ccc(Cl)cc3)c2nc1C#N	28.9 µM	9.99 µM
C=C1C(=O)OC2/C=C(\CO)CC/C=C(\CO)CC(OC(=O)C(C)C)C12 (stereo not drawn)	> 100 µM	
O=C(COc1cccc(/C=C2\Oc3ccc4ccccc4c3C2=O)c1)c1ccc(Cl)cc1	> 100 µM	> 100 µM
CCCN(CCC)C1CCc2c(ccc3cc[nH]c23)C1 (stereo not drawn)	> 100 µM	
CC(C)C[C@H](NC(=O)CCn1ccc2ncccc2c1=O)B(O)O	> 100 µM	> 73.9 µM
O=C1CS(=O)(=O)C(c2cccc(Oc3ccccc3)c2)N1c1ccccc1 (stereo not drawn)	> 100 µM	
COC(=O)[C@H](C)NC(=O)[C@@H](OC)[C@@H]1Cc2cc3cc(OC4CC(OC5CC(O)C(O)C(C)O5)C(O)C(C)O4)c(C)c(O)c3c(O)c2C(=O)[C@H]1OC1CC(OC2CC(OC3CC(C)(O)C(O)C(C)O3)C(O)C(C)O2)C(O)C(C)O1 (stereo partly drawn)	> 50 µM	0.117 µM
CC1(C)CC([P+](c2ccccc2)(c2ccccc2)c2ccccc2)=NN1	> 100 µM	17.8 µM
O=C(N/N=C(/COc1ccccc1Cl)N=Cc1ccncc1)c1ccncc1	> 100 µM	
CNC1=C(C(=O)OC)SC(c2ccccc2)(c2ccccc2)SC1	> 100 µM	22.5 µM
COc1cc(OC2OC(COC(=O)c3cc(O)c(O)c(O)c3)C(O)C(O)C2O)ccc1O (stereo not drawn)	> 100 µM	
Cc1cnccc1N=Nc1ccc(N(C)C)cc1	> 100 µM	
COC12C=CC(C=C1C#N)CC2 (stereo not drawn) (tested in a mixture with another compound)	> 100 µM	
COc1cc2c(cc1OC)[C@@](C)(C(O)C(O)C(C)(C)O)NCC2 (stereo partly drawn)	> 100 µM	
COC1=C2C=[N+](C)C3C(=C2C=CC1OC)Cc1cc2c(cc13)OCO2 (stereo not drawn)	30.5 µM	
Cc1nc2c(N3CCCC3)nc(N3CCNCC3)nc2nc1NCc1ccccc1	14.7 µM and 17.7 µM	6.24 µM
COc1cc(CCN(C)C)cc(OC)c1OC	> 100 µM	
CCCc1nnc2sc(COc3cc(Cl)c(OCc4nn5c(CCC)nnc5s4)cc3Cl)nn12	> 100 µM	
Nc1c(C(=O)N/N=C/c2ccc(-c3cc(Cl)c(Cl)cc3Cl)o2)cnn1-c1ccnc2c(C(F)(F)F)cccc12	> 100 µM	4.34 µM
Nc1nccc2c1ncn2C1OC(CO)C(O)C1O (stereo not drawn)	> 100 µM	> 100 µM
NC(=Nc1ccccc1)c1ccccc1N	> 100 µM	
CCn1c(=O)c2ccccc2n2c(=O)c3cc4ccccc4cc3nc12	> 100 µM	
CC(C)C[C@H](NC(=O)[C@H](Cc1cccc2ccccc12)NS(=O)(=O)c1cccc2cccnc12)B(O)O	14.1 µM	0.722 µM

Structure (SMILES)	TGI	GI50
COc1c(Cl)ccc2c(-c3nc4cc(Cl)c(F)cc4s3)cc(=O)oc12	> 100 µM	56.6 µM
CCOC(=O)c1[nH]c2cccc3c2c1CC[C@H](NC(=O)C(F)(F)F)C3=O	> 100 µM	
C=C1C(OC/C=C/COC2O[C@@H]3O[C@@]4(C)CC[C@H]5[C@H](C)CC[C@@H](C2=C)[C@@]35OO4)O[C@@H]2O[C@@]3(C)CC[C@H]4[C@H](C)CC[C@@H]1[C@@]24OO3 (stereo partly drawn)	> 100 µM	22.3 µM
COc1ccc2c(c1)CCN1CCCc3ccccc3C21 (stereo not drawn)	> 100 µM	
CN(C)CC1CCC/C(=C\c2ccc(OC(=O)/C=C/c3ccc(Cl)c(Cl)c3)cc2)C1=O (stereo not drawn)	> 66.9 µM	
COc1ccc(N=C2C(=Nc3ccc(OC)cc3)N(c3ccc(N(C)C)cc3)C(=S)N2c2ccc(OC)cc2)cc1	> 100 µM	
CCCCCN(CCCCC)CC(C)(C)C(O)c1ccc(OC)c2ccccc12 (stereo not drawn)	26.3 µM	
Cn1c(=O)c(C(=O)NC(=O)NCCCCCOC(=O)CCCCCCCCCCC(=O)OCCCCCNC(=O)NC(=O)c2cn(Cc3ccccc3)c(=O)n(C)c2=O)cn(Cc2ccccc2)c1=O	> 100 µM	
CC(=O)OC(C)(C)CCC(=O)[C@](C)(O)[C@H]1[C@H](O)C[C@@]2(C)[C@@H]3CC=C4C(C)=C(OC5OC(CO)C(O)C(O)C5O)C(=O)C[C@@H]4[C@]3(C)C(=O)C[C@]12C (stereo partly drawn)	> 100 µM	
COc1cccc(-c2nccc3c(OCc4ccccc4)c(OC)c(OC)cc23)c1	> 100 µM	
Cc1ccc(S(=O)(=O)N/N=C2/CCC(C(C)(C)C)CC2Br)cc1 (stereo not drawn)	> 100 µM	
COc1cc(/C=C\c2ccc(Br)cc2)cc(OC)c1OC	> 100 µM	
O=C(O)CNC(=O)c1ccc2cc(C(=O)N3CC(CCl)c4ccc([N+](=O)[O-])cc43)[nH]c2c1 (stereo not drawn)	> 100 µM	
Cc1ccc2c(C(=O)c3c(C)n(CCN4CCOCC4)c4ccccc34)cccc2c1	99.4 µM	
Nc1ccc2ccc(-c3ccc[nH]3)nc2n1	> 100 µM	
COc1cccc(CCC(=O)c2cc3c(N)c(C(=O)Nc4cccc(Cl)c4C)sc3nc2C)c1	> 100 µM	3.56 µM
CC(=O)Oc1cc(OC(C)=O)c2c(C)cc(=O)oc2c1	> 100 µM	
Cc1cc(N(CCCNc2ccnc3cc(Cl)ccc23)Cc2ccc3c(c2)OCO3)nc(N2CCCCC2)n1	8.22 µM	2.42 µM
CC1=CCC[C@H]2[C@](C)(CC3=CC(=O)C(Sc4ccccc4)=CC3=O)[C@@H](C)CC[C@]12C	56.4 µM	
Nc1ccc(C(OC(=O)c2cc3ccccc3c(Cc3c(O)c(C(=O)OC(c4ccc(N)cc4)(c4ccc(N)cc4)c4ccc(N)cc4)cc4ccccc34)c2O)(c2ccc(N)cc2)c2ccc(N)cc2)cc1	50.5 µM	0.855 µM
O=C(CNc1ccc2c(=S)c3ccccc3[nH]c2c1)Nc1ccccc1-c1ccccc1NC(=O)CNc1ccc2c(=S)c3ccccc3[nH]c2c1	51.1 µM	
CS/C(c1ccccc1)=[N+](\[O-])Cc1ccccc1	> 100 µM	

— PubChem BioAssay (NCI)
